Data published in PubChem BioAssay AID624296 (National Center for Advancing Translational Sciences (NCATS), 2012).
In all, about 350,000 compounds went through this assay and about 9,900 (2.8%) were called active. This list was built around the results that the source calls inconclusive (neither active nor inactive); the mix of calls is not that of the screen. Calls come from the whole dose curve; as a rule, active = well fitted activation curve with a large enough effect; inconclusive = small, poorly fitted or top-dose-only effect; inactive = no such curve, though single readings can be large or run the other way. No potency is given beside an inconclusive call; the fits are too rough.

Assay: A quantitative high throughput screen for small molecules that induce DNA re-replication in MCF 10a normal breast cells. For activity, positive = re-replication: % of control where 0% means no effect. Note: nearly all actives have a fitted effect of over 50% in size.
Settings: MCF 10A DNA re-replication, Hoechst nuclear intensity, 48 h; activity, positive = re-replication: at 46.1 µM (top of the series)
Potency is the fitted concentration of half-maximal effect; tags give direction and shape of the fitted curve.

| SMILES | activity, positive = re-replication | Potency |
| --- | --- | --- |
| COc1ccc(N2CCN(CCNC(=O)Nc3ccc(Cl)cc3)CC2)cc1 | inactive: 2.4% |  |
| CC(C)c1ccc(NC(=S)NNc2ccc(Cl)c(C(=O)O)c2)cc1 |  | inconclusive [activator, single point] |
| CN(CC1COc2ccccc2O1)C(=O)c1cc(COc2c(F)cccc2F)on1 (centres undefined) |  | inconclusive [activator, single point] |
| CSc1nc2nc3c(cc2c(=O)n1-c1ccc(C)cc1)COC(C)(C)C3 | inactive: 8.99% |  |
| c1ccc(CCNc2nc3ccccc3n3nnnc23)cc1 | inactive: 2.65% |  |
| Oc1ccc(-c2cnc(-c3ccc(O)cc3)nc2)cc1 |  | inconclusive [activator, full curve, poor fit] |
| Cc1ccc(CNC(=O)C(N=C2NS(=O)(=O)c3ccccc32)C(C)C)cc1 (centres undefined) | inactive: -4.11% |  |
| COCCn1nnnc1C(c1cccs1)N1CCN(c2cc(C)ccc2C)CC1 (centres undefined) | inactive: -3.53% |  |
| O=S(=O)(NCCc1ccccc1)c1ccccc1 |  | inconclusive [activator, single point] |
| Oc1ccc(-c2c(C3=CCCCC3)sc3ccccc23)cc1 |  | inconclusive [activator, single point] |
| O=C1N[C@H]2CC=C[C@H]2Nc2ccccc21 |  | inconclusive [activator, single point] |
| Cn1c(C(=O)N2CCc3ccccc3C2)cc2oc3ccccc3c21 |  | inconclusive [activator, single point] |
| Cc1ccc(NC(=S)N/N=C/c2ccc([N+](=O)[O-])s2)cc1 |  | active: 10.3 µM |
| COC(=O)c1ccc2nc(-c3ccc4c(c3)OCO4)cn2c1 | inactive: 7.64% |  |
| CCCOc1ccccc1C1NC(=O)NC(C)=C1C(=O)OCCOC(C)C (centres undefined) |  | inconclusive [activator, single point] |
| Cc1cc(C)c2c(c1)OC(=O)CC2c1ccccc1C (centres undefined) | inactive: -1.33% |  |
| CC(NC(=O)c1ccc(Br)cc1)c1ccccc1 (centres undefined) |  | inconclusive [activator, single point] |
| CNC(=O)NC(=O)Cn1cnc2sc(-c3ccccc3)cc2c1=O |  | inconclusive [activator, full curve, poor fit] |
| O=C(NNC(=O)c1cc(-c2cccnc2)nc2ccccc12)Nc1ccc(Cl)cc1 |  | inconclusive [activator, single point] |
| CCn1c(SCC(=O)N2CCN(c3cccc(Cl)c3)CC2)nc2ccccc2c1=O |  | inconclusive [activator, partial curve, poor fit] |
| COc1c(Br)cc([N+](=O)[O-])c(OC)c1C(=O)NC(=O)Nc1c(Cl)cccc1Cl |  | inconclusive [activator, single point] |
| COc1ccc(OC)c(C2C3=C(N=c4s/c(=C\c5cccc(O)c5)c(=O)n42)c2ccccc2CC3)c1 (centres undefined) |  | inconclusive [activator, partial curve, poor fit] |
| O=[N+]([O-])c1ccc(N2CCCC2)cc1NC1CC1 |  | inconclusive [activator, single point] |

| SMILES | activity, positive = re-replication | Potency |
| --- | --- | --- |
| CCCCn1nc(NC(=O)CC)c2cc3cc(OC)ccc3nc21 |  | active: 25.9 µM |
| CCOC(=O)c1c(NC(=O)c2ccccc2)sc2c1CCc1ccccc1-2 |  | active: 20.6 µM |
| CCN(C(=O)COC(=O)/C=C/c1cccc(Br)c1)C1CCS(=O)(=O)C1 (centres undefined) |  | inconclusive [activator, single point] |
| COc1ccc(S(=O)(=O)N2c3ccccc3OCC2C)cc1 (centres undefined) |  | active: 1.3 µM |
| CN1c2ccccc2N(C)C1(C)c1ccccc1 |  | inconclusive [activator, single point] |
| O=C(CCn1cccn1)Nc1ccc2c(c1)OCCO2 | inactive: 3.31% |  |
| CCc1cc(C(=O)N2CCCC(C(=O)c3ccc(Oc4ccccc4)cc3)C2)n(C)n1 (centres undefined) | inactive: 1.62% |  |
| COc1cc2c(C#CCCO)c(-c3ccsc3)oc(=O)c2cc1OC | inactive: 24.7% |  |
| COC(=O)c1c(NC(=O)c2ccc(N(C)S(=O)(=O)c3ccc(C)cc3)cc2)sc2c1CCCC2 |  | active: 5.8 µM |
| CCOC(=O)c1oc2ccccc2c1NC(=O)CN1CCOCC1 |  | inconclusive [activator, single point] |
| CC1(c2ccccc2)CC(C)(C)N(C(=O)c2cc([N+](=O)[O-])cc([N+](=O)[O-])c2)c2ccccc21 (centres undefined) |  | inconclusive [activator, single point] |
| CCNC(=O)CCSc1nc2cc(Cl)ccc2o1 | inactive: -1.58% |  |
| CC[C@@]12CCCN3CCc4c(n(c5ccccc45)C(=O)C1)[C@H]32 |  | inconclusive [activator, partial curve] |
| COc1ccccc1NC(=O)N(Cc1ccco1)Cc1cc2ccc(C)c(C)c2[nH]c1=O |  | active: 7.31 µM |
| CCN1C[C@@H]2[C@@H]3C(=O)N(Cc4ccccc4)C(=O)[C@@H]3[C@](C)(C(=O)OC)N2C1=NC | inactive: -40.4% |  |
| CCOC(=O)c1ccccc1NC(=O)COC(=O)CN1C(=O)NC2(CCCC2)C1=O | inactive: 9.08% |  |
| O=C(c1ccccc1)C1N=NCC1c1ccc(Cl)cc1 (centres undefined) |  | inconclusive [activator, partial curve, poor fit] |
| CC(C)CC(=O)NC(NC(=S)Nc1cccc2cccnc12)C(Cl)(Cl)Cl (centres undefined) | inactive: -1.28% |  |
| Cc1cc(C)n(-c2ccc(C(=O)Nc3sccc3C(N)=O)cc2)n1 |  | inconclusive [activator, single point] |
| CC1CCN(CCCNC(=O)c2ccc3c(Cl)c4c(nc3c2)CCCC4)CC1 |  | inconclusive [activator, single point] |
| Cc1ccc(S(=O)(=O)N2[C@@H](c3ccc(F)cc3)C(C(=O)O)=CC[C@H]2c2ccc(Cl)cc2)cc1 |  | inconclusive [activator, full curve, poor fit] |
| COc1ccc2cc(CNCCOCCOCCNCc3ccc4cc(OC)ccc4c3)ccc2c1 |  | active: 7.31 µM |
| N#Cc1c(NC(=O)c2ccc(Br)o2)n(-c2ccccc2)c2nc3ccccc3nc12 |  | inconclusive [activator, single point] |

| SMILES | activity, positive = re-replication | Potency |
| --- | --- | --- |
| O=C1C2C3C=CC(CNS(=O)(=O)c4ccccc4)(O3)C2C(=O)N1c1ccc(Cl)cc1 (centres undefined) |  | inconclusive [activator, single point] |
| CC(C)CC(=O)Nc1ccc2oc(-c3ccncc3)nc2c1 |  | inconclusive [activator, partial curve, poor fit] |
| O=C(NCCOc1ccc(F)cc1)C1CCC(=O)N(CC2CCCCC2)C1 (centres undefined) | inactive: -3.85% |  |
| COc1cc(/C=C/C(=O)c2ccc(O)cc2)ccc1OCC#N |  | inconclusive [activator, partial curve, poor fit] |
| Cc1ccc2[nH]c(O)c(N=NC(=O)C3CC3c3ccccc3)c2c1Br (centres undefined) |  | inconclusive [activator, partial curve] |
| CC1=NN(c2ccc(Cl)cc2)C(=O)C1C(c1ccccc1O)c1c(C)[nH]n(-c2ccc(Cl)cc2)c1=O (centres undefined) |  | inconclusive [activator, single point] |
| CC(C)(C)OC(=O)C[C@H]1C/C=C\C[C@@H](CC(=O)N[C@@H](CO)Cc2ccccc2)C(=O)N2CCC[C@H]2COC1=O |  | inconclusive [activator, partial curve] |
| O=C(CSc1nnc(-c2ccco2)n1-c1ccccc1)N1CCOCC1 | inactive: 4.09% |  |
| CC(C)/C=C/CN1CCCC(N2CCN(c3cccc(Cl)c3)CC2)C1 (centres undefined) |  | inconclusive [activator, single point] |
| COc1cc(/C=C2\SC(=S)N(CC(=O)O)C2=O)ccc1OS(=O)(=O)c1ccc(C)cc1 |  | inconclusive [activator, partial curve, poor fit] |
| NC(=O)C1CCN(CCS(=O)(=O)c2ccc(Cl)cc2)CC1 |  | inconclusive [activator, full curve, poor fit] |
| O=C(COC(=O)CNC(=O)C1CCCCC1)NCc1ccccc1 | inactive: -4.63% |  |
| COc1ccccc1-n1c(C)c(C(=O)O)c2cc(OC)c3ccccc3c21 | inactive: -3.25% |  |
| COCCN(C(=O)COC(=O)C1CCC(C(C)(C)C)CC1)c1c(N)n(Cc2ccccc2)c(=O)[nH]c1=O (centres undefined) |  | inconclusive [activator, single point] |
| C/C(=C\c1ccccc1)C(=O)c1c(C)cc(C)[nH]c1=O | inactive: -3.08% |  |
| O=C(/C=C/Nc1ccc(F)cc1F)c1ccco1 |  | inconclusive [activator, partial curve, poor fit] |
| Nc1cccc(S(=O)(=O)c2ccc(N)c(N)c2)c1 |  | inconclusive [activator, single point] |
| CCc1ccccc1NC(=O)Cn1nnc(C(=O)NCc2cccs2)c1N |  | inconclusive [activator, single point] |
| COc1ccc(-c2cc(=O)oc3cc(OCC(=O)Nc4ccccn4)ccc23)cc1 |  | inconclusive [activator, single point] |
| CCN(CC1CCCO1)C(=O)c1cc(COc2cc(C)c(Cl)c(C)c2)on1 (centres undefined) |  | inconclusive [activator, partial curve, poor fit] |
| S=c1[nH]nc(C2CC2c2ccc(Cl)cc2)n1-c1ccc(Cl)cc1 (centres undefined) |  | inconclusive [activator, single point] |
| Cc1cccc2c1NC(=O)C21OCC(CO)([N+](=O)[O-])CO1 (centres undefined) |  | inconclusive [activator, single point] |
| O=[N+]([O-])c1cc(Cl)cc(/C=N\Nc2ccccn2)c1O |  | inconclusive [activator, single point] |
